Experimental data published in patent US4386074A, “LRF Antagonists” (The Salk Institute for Biological Studies, priority 1981, dated 1983).
At least one peptide structure holds a part that was inferred or is arguable (an end, a ring closure or a residue). *1 amine or outer side, *2 acyl side, *3 side chain or, on linkers, in order; H or OH if unused. Where a SMILES comes first, the peptide text is derived from it. [ ]: non-standard residue; d: D form. The star is where a group is joined. X2 = Cc1c(C)c(C)c(C[C@@H](N[*:1])C(=O)[*:2])c(C)c1C; dPhe(4-NO2) = N[C@H](Cc1ccc([N+](=O)[O-])cc1)C(=O)O; dPhe(3,4-Cl2) = N[C@H](Cc1ccc(Cl)c(Cl)c1)C(=O)O; dPhe(4-CF3) = N[C@H](Cc1ccc(C(F)(F)F)cc1)C(=O)O; dPhe(2,4-Cl2) = N[C@H](Cc1ccc(Cl)cc1Cl)C(=O)O; X1 = CSc1ccc(C[C@@H](N[*:1])C(=O)[*:2])cc1; dPhe(4-NH2) = Nc1ccc(C[C@@H](N)C(=O)O)cc1; dPhe(4-Br) = N[C@H](Cc1ccc(Br)cc1)C(=O)O; dPhe(4-Me) = Cc1ccc(C[C@@H](N)C(=O)O)cc1; dPhe(3-F) = N[C@H](Cc1cccc(F)c1)C(=O)O; dPhe(4-F) = N[C@H](Cc1ccc(F)cc1)C(=O)O; NMeL = CN[C@@H](CC(C)C)C(=O)O; ΔPro = O=C(O)[C@@H]1C=CCN1; Acryloyl = C=CC(=O)*

How the values were obtained:
[1] = tested on: mature female Sprague-Dawley rats; experiment: In vivo prevention of ovulation in female rats; parameters: species or system rat; settings: rats ovulating/rats treated; for In Vivo (5μg) Rats Ovulating: 5 micrograms of peptide in corn oil injected at about noon on day of proestrous; for In Vivo (10μg) Rats Ovulating: 10 micrograms of peptide in corn oil injected at about noon on day of proestrous
[2] = tested on: dissociated rat pituitary cells; experiment: In vitro inhibition of LRF-induced LH release, dissociated rat pituitary cells (radioimmunoassay for rat LH); assay type: cell-based; settings: molar concentration ratio antagonist/LRF required to reduce LH released by 3 nanomolar LRF to 50 percent of control

SMILES	In Vivo (5μg) Rats Ovulating [1]	In Vitro ICR50 [2]	In Vivo (10μg) Rats Ovulating [1]
CC(=O)N1CC=C[C@H]1C(=O)N[C@H](Cc1ccc(Cl)c(Cl)c1)C(=O)N[C@H](Cc1c[nH]c2ccccc12)C(=O)N[C@@H](CO)C(=O)N[C@@H](Cc1ccc(O)cc1)C(=O)N[C@H](Cc1c[nH]c2ccccc12)C(=O)N[C@@H](CC(C)C)C(=O)N[C@@H](CCCNC(=N)N)C(=O)N1CCC[C@H]1C(=O)NCC(N)=O [Peptide 1, [Ac-dehydro Pro^1,3,4 Cl2 -D-Phe^2, D-Trp^3,6]-LRF] (Ac-[ΔPro][dPhe(3,4-Cl2)][dW]SY[dW]LRPG-NH2)	1/10	0.039	–
CC(=O)N1CC=C[C@H]1C(=O)N[C@H](Cc1ccc(C(F)(F)F)cc1)C(=O)N[C@H](Cc1c[nH]c2ccccc12)C(=O)N[C@@H](CO)C(=O)N[C@@H](Cc1ccc(O)cc1)C(=O)N[C@H](Cc1c[nH]c2ccccc12)C(=O)N[C@@H](CC(C)C)C(=O)N[C@@H](CCCNC(=N)N)C(=O)N1CCC[C@H]1C(=O)NCC(N)=O [Peptide 2] (Ac-[ΔPro][dPhe(4-CF3)][dW]SY[dW]LRPG-NH2)	7/9	0.070	–
CC(=O)N1CC=C[C@H]1C(=O)N[C@H](Cc1ccc(F)cc1)C(=O)N[C@H](Cc1c[nH]c2ccccc12)C(=O)N[C@@H](CO)C(=O)N[C@@H](Cc1ccc(O)cc1)C(=O)N[C@H](Cc1c[nH]c2ccccc12)C(=O)N[C@@H](CC(C)C)C(=O)N[C@@H](CCCNC(=N)N)C(=O)N1CCC[C@H]1C(=O)NCC(N)=O [Peptide 3] (Ac-[ΔPro][dPhe(4-F)][dW]SY[dW]LRPG-NH2)	0/10	0.021	–
CC(=O)Nc1ccc(C[C@@H](NC(=O)[C@@H]2C=CCN2C(C)=O)C(=O)N[C@H](Cc2c[nH]c3ccccc23)C(=O)N[C@@H](CO)C(=O)N[C@@H](Cc2ccc(O)cc2)C(=O)N[C@H](Cc2c[nH]c3ccccc23)C(=O)N[C@@H](CC(C)C)C(=O)N[C@@H](CCCNC(=N)N)C(=O)N2CCC[C@H]2C(=O)NCC(N)=O)cc1 [Peptide 4] (Ac-[ΔPro][dPhe(4-NH2)](Ac)[dW]SY[dW]LRPG-NH2)	–	0.500	9/10
CC(=O)N1CC=C[C@H]1C(=O)N[C@H](Cc1ccc([N+](=O)[O-])cc1)C(=O)N[C@H](Cc1c[nH]c2ccccc12)C(=O)N[C@@H](CO)C(=O)N[C@@H](Cc1ccc(O)cc1)C(=O)N[C@H](Cc1c[nH]c2ccccc12)C(=O)N[C@@H](CC(C)C)C(=O)N[C@@H](CCCNC(=N)N)C(=O)N1CCC[C@H]1C(=O)NCC(N)=O [Peptide 5] (Ac-[ΔPro][dPhe(4-NO2)][dW]SY[dW]LRPG-NH2)	2/10	0.011	–
CC(=O)N1CC=C[C@H]1C(=O)N[C@H](Cc1ccc(Br)cc1)C(=O)N[C@H](Cc1c[nH]c2ccccc12)C(=O)N[C@@H](CO)C(=O)N[C@@H](Cc1ccc(O)cc1)C(=O)N[C@H](Cc1c[nH]c2ccccc12)C(=O)N[C@@H](CC(C)C)C(=O)N[C@@H](CCCNC(=N)N)C(=O)N1CCC[C@H]1C(=O)NCC(N)=O [Peptide 6] (Ac-[ΔPro][dPhe(4-Br)][dW]SY[dW]LRPG-NH2)	5/7	0.010	–
CSc1ccc(C[C@@H](NC(=O)[C@@H]2C=CCN2C(C)=O)C(=O)N[C@H](Cc2c[nH]c3ccccc23)C(=O)N[C@@H](CO)C(=O)N[C@@H](Cc2ccc(O)cc2)C(=O)N[C@H](Cc2c[nH]c3ccccc23)C(=O)N[C@@H](CC(C)C)C(=O)N[C@@H](CCCNC(=N)N)C(=O)N2CCC[C@H]2C(=O)NCC(N)=O)cc1 [Peptide 7] (Ac-[ΔPro][X1][dW]SY[dW]LRPG-NH2)	7/10	0.030	–
COc1ccc(C[C@@H](NC(=O)[C@@H]2C=CCN2C(C)=O)C(=O)N[C@H](Cc2c[nH]c3ccccc23)C(=O)N[C@@H](CO)C(=O)N[C@@H](Cc2ccc(O)cc2)C(=O)N[C@H](Cc2c[nH]c3ccccc23)C(=O)N[C@@H](CC(C)C)C(=O)N[C@@H](CCCNC(=N)N)C(=O)N2CCC[C@H]2C(=O)NCC(N)=O)cc1 [Peptide 8] (Ac-[ΔPro][dY](Me)[dW]SY[dW]LRPG-NH2)	–	0.125	3/10
CC(=O)N1CC=C[C@H]1C(=O)N[C@H](Cc1ccc(C)cc1)C(=O)N[C@H](Cc1c[nH]c2ccccc12)C(=O)N[C@@H](CO)C(=O)N[C@@H](Cc1ccc(O)cc1)C(=O)N[C@H](Cc1c[nH]c2ccccc12)C(=O)N[C@@H](CC(C)C)C(=O)N[C@@H](CCCNC(=N)N)C(=O)N1CCC[C@H]1C(=O)NCC(N)=O [Peptide 9] (Ac-[ΔPro][dPhe(4-Me)][dW]SY[dW]LRPG-NH2)	–	0.044	1/7
CC(=O)N1CC=C[C@H]1C(=O)N[C@H](Cc1ccc(Cl)cc1Cl)C(=O)N[C@H](Cc1c[nH]c2ccccc12)C(=O)N[C@@H](CO)C(=O)N[C@@H](Cc1ccc(O)cc1)C(=O)N[C@H](Cc1c[nH]c2ccccc12)C(=O)N[C@@H](CC(C)C)C(=O)N[C@@H](CCCNC(=N)N)C(=O)N1CCC[C@H]1C(=O)NCC(N)=O [Peptide 10] (Ac-[ΔPro][dPhe(2,4-Cl2)][dW]SY[dW]LRPG-NH2)	4/7	0.034	–
C=CC(=O)N1CC=C[C@H]1C(=O)N[C@H](Cc1ccc(Cl)c(Cl)c1)C(=O)N[C@H](Cc1c[nH]c2ccccc12)C(=O)N[C@@H](CO)C(=O)N[C@@H](Cc1ccc(O)cc1)C(=O)N[C@H](Cc1c[nH]c2ccccc12)C(=O)N[C@@H](CC(C)C)C(=O)N[C@@H](CCCNC(=N)N)C(=O)N1CCC[C@H]1C(=O)NCC(N)=O [Peptide 11] (Acryloyl-[ΔPro][dPhe(3,4-Cl2)][dW]SY[dW]LRPG-NH2)	–	0.048	–
COc1ccc(C[C@@H](NC(=O)[C@@H]2C=CCN2C(C)=O)C(=O)N[C@H](Cc2c[nH]c3ccccc23)C(=O)N[C@@H](CO)C(=O)N[C@@H](Cc2ccc(O)cc2)C(=O)N[C@H](Cc2c[nH]c3ccccc23)C(=O)N(C)[C@@H](CC(C)C)C(=O)N[C@@H](CCCNC(=N)N)C(=O)N2CCC[C@H]2C(=O)NCC(N)=O)cc1 [Peptide 12] (Ac-[ΔPro][dY](Me)[dW]SY[dW][NMeL]RPG-NH2)	–	0.29	5/10
CC(=O)N1CC=C[C@H]1C(=O)N[C@H](Cc1ccc(C)cc1)C(=O)N[C@H](Cc1c[nH]c2ccccc12)C(=O)N[C@@H](CO)C(=O)N[C@@H](Cc1ccc(O)cc1)C(=O)N[C@H](Cc1c[nH]c2ccccc12)C(=O)N(C)[C@@H](CC(C)C)C(=O)N[C@@H](CCCNC(=N)N)C(=O)N1CCC[C@H]1C(=O)NCC(N)=O [Peptide 13] (Ac-[ΔPro][dPhe(4-Me)][dW]SY[dW][NMeL]RPG-NH2)	–	0.11	3/4
CC(=O)N1CC=C[C@H]1C(=O)N[C@H](Cc1ccc(Cl)c(Cl)c1)C(=O)N[C@H](Cc1c[nH]c2ccccc12)C(=O)N[C@@H](CO)C(=O)N[C@@H](Cc1ccc(O)cc1)C(=O)N[C@H](Cc1c[nH]c2ccccc12)C(=O)N(C)[C@@H](CC(C)C)C(=O)N[C@@H](CCCNC(=N)N)C(=O)N1CCC[C@H]1C(=O)NCC(N)=O [Peptide 14] (Ac-[ΔPro][dPhe(3,4-Cl2)][dW]SY[dW][NMeL]RPG-NH2)	–	0.05	1/3
CC(=O)N1CC=C[C@H]1C(=O)N[C@H](Cc1c(C)c(C)c(C)c(C)c1C)C(=O)N[C@H](Cc1c[nH]c2ccccc12)C(=O)N[C@@H](CO)C(=O)N[C@@H](Cc1ccc(O)cc1)C(=O)N[C@H](Cc1c[nH]c2ccccc12)C(=O)N[C@@H](CC(C)C)C(=O)N[C@@H](CCCNC(=N)N)C(=O)N1CCC[C@H]1C(=O)NCC(N)=O [Peptide 15] (Ac-[ΔPro][X2][dW]SY[dW]LRPG-NH2)	–	0.375	7/10
CC(=O)N1CC=C[C@H]1C(=O)N[C@H](Cc1cccc(F)c1)C(=O)N[C@H](Cc1c[nH]c2ccccc12)C(=O)N[C@@H](CO)C(=O)N[C@@H](Cc1ccc(O)cc1)C(=O)N[C@H](Cc1c[nH]c2ccccc12)C(=O)N[C@@H](CC(C)C)C(=O)N[C@@H](CCCNC(=N)N)C(=O)N1CCC[C@H]1C(=O)NCC(N)=O [Peptide 17] (Ac-[ΔPro][dPhe(3-F)][dW]SY[dW]LRPG-NH2)	–	–	5/7
